# Assay results taken from the supplement of paper PMC12632987.
# The full ranking holds about 1,800 sequences; the median of “median log2 fold change of GCK-ALFA target abundance (FLAG IP / Myc IP barcode read proportion)” is about 0.14, and the lowest 2% start at about -0.84. This is one part of the list.
# T1: TRAF2, Q12933
# T1 chain: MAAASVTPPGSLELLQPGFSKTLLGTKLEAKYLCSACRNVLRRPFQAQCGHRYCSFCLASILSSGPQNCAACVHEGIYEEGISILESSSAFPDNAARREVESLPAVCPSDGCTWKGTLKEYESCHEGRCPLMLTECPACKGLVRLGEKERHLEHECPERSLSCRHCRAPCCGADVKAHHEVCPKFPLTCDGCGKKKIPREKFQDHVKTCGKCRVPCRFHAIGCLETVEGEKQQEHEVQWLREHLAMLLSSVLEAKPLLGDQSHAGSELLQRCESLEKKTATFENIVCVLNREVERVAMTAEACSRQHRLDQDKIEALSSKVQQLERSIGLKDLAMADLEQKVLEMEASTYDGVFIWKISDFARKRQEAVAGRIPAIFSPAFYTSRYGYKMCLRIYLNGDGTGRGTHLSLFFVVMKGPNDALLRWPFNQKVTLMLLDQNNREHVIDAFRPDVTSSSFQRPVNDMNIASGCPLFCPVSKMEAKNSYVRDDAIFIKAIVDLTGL
# B1: traf2_out_5_189_2324 (protein)
# chain: SAREEEERRDRERARRLAKEASELLNKMQAAGASNEEIIDAFLEAAAKLSIEDARLFTGIAYAIWEGLALANNDEAALAAARRFRERAAALVAERRAAAA
# B2: traf2_out_20_3_2152 (protein)
# chain: TPLEEEAERALEEAERLLREAAELADPETAARLEELLERVRRSRELPPDERLVVLSEVRREVRALAEEARAAGREELAAVLEEAADALNRAMQLVYQLIL
# B3: traf2_out_13_95_1218 (protein)
# chain: SEEANEKLRKIANDMLDKVEEILEELEEKLKPYPETKEDIEKIKHALRNYGIHQAIAVLEEASKKHPEVKELFDEAIEKIKKIIKEAGKKVAEVLKEEEE
# B4: traf2_out_13_95_1199 (protein)
# chain: EEEKTKKIREVTNEIADKLLAFADETAAEVEARTGDAAAAARVRAALDGHGVSAAIHVLRELAAADPAHAAVYLEAAERLEEKRREAGKEVAKELKKIEE
# B5: traf2_out_11_104_640 (protein)
# chain: LTREQAREFNDFAMEKEDEARAVAAALAAQLEAAGETEAAARVRAALAHPGSGISTFRNLLEDLRPELSPEAAAAADAAIAELRALQAEVSKKLNELEKK
# B6: traf2_out_11_104_632 (protein)
# chain: KKKEALNAYVDAMMEEAKKSMEEALKRLEELVPEAKEEIAKIRELIEKGRFGAAREAMYEALLKHFSPEEAEKIMEELLEKHEKRASKVHKEMEKKIEEA
# B7: traf2_out_20_38_2020 (protein)
# chain: SAEEEEERKLEELIRHAREAYDKAEKWVAELQAQGKSVEEIAEAAKKKVKELLTKHGLEEEAKILIEEIDRVLDSPDALRLIVQILARAETLVFQKELQK
# B8: traf2_out_11_155_712 (protein)
# chain: EKKLEIYQELVDKNMEIADEALKKLEELIEEIEKEDPEVAAELRAVLEANKDAGITTKLLLAERVLRKAGYEEKAKKVREILEEAQRKSNEIAKEAEEKL
# B9: traf2_out_11_169_773 (protein)
# chain: EEAEKNRKINDFALELNDEAKEKLKEEALKLAEEEGLDVEEIKKIFEKNKNKSLSAVASALINYFNSKGKEEAAKKVLEKYEELKEEINKKSSEFIKSLE
# B10: traf2_out_6_156_2379 (protein)
# chain: KAEEILKKAEEEIKEQIKKLAAASEEKKIAYISKIAGAVYRALQALREAGASVEELKEAGERLRKVAEEEAKKAGLDEDTINLLLASIDAVVEVALEEAK
# B11: traf2_out_6_156_2380 (protein)
# chain: MKEEILEEAKEKIKELIKKLAEASEEKKIKYISEIAGAVYRALQRLREAGASVEEIEEAVRELKETAEEEAKKAGLDEDTRNLLLGSINAVGEVALREAR
# B12: traf2_out_17_162_1487 (protein)
# chain: EELERRLEELEKRLEELEKRLEELKKKLENIENLSKEELTDLLVEVSEARREARRLAEELRELREETGDEELEELIERAERLAEELQRLANKIYKELEKK
# B13: traf2_out_9_132_2601 (protein)
# chain: SPEEERRARTEALLAEDRADPATRGHYLAVDFALELSRIAGEGLDDLKTKSVAEVTAAFEAAADALLARYTAQDPSIRTTLTTIREQELARFLEEVERAQ
# B14: traf2_out_14_154_1272 (protein)
# chain: DELFDELEYHSRLSRHYEAIVDAYETEGREAAAKMAKETTADLIARYPEKAAEFKAELEEILAALNGTEEEQAAMVAKLKAESEEHKKKARELFKKIEEE
# B15: traf2_out_6_156_2415 (protein)
# chain: MVEKIFEETLKKIKEEIKKLSEASEEKKIKYISDIAGTFYKALQKLREAGASLEEIKEFSKRLLEETKKLAKEAGLPEETINLLLSSLTAVANVAIAEAK
# B16: traf2_out_18_3_1904 (protein)
# chain: KEEKRKELSDKIDEIEDEARAYARRVLDELRARHPEVAAELDALRAVLEAGGGAFGVLEALAELARRLGEEELAEEIERFIREKRKEMQELVDKYEELIK
# B17: traf2_out_11_169_853 (protein)
# chain: EEKEKNRKIIDKALELTDEAKARLEEHALALAREAGLDEAEVRAIFAAHAGKSLSAVAAALIAWFRAQGKEDAAAAVEAKYEELKDEINKKMTAFLKELE
# B18: traf2_out_17_162_1611 (protein)
# chain: SELEEKLKRLEELLERLEKKLKELEEKLKNIDKLSKEELTDLLVEASEARREALEALEEIRKLKSLLDPELYERLSKRFEEIAEKFQRLANKFYKKLEEK
# B19: traf2_out_20_38_2031 (protein)
# chain: SEEEEEKKRLEEAIKVANDAYDRYTERFAALRAAGRTVEEMAAETRAEVRELLTAAGLEEEAEELIADIDLALGSPEAERLLVRILARAEALVWQKKKNE
# Molecular target: T1, TRAF2, Q12933
# Assay: median log2 fold change of GCK-ALFA target abundance (FLAG IP / Myc IP barcode read proportion) (log2 ratio); each designed protein is fused to an ALFA-tag nanobody in HEK293 cells to bring the named protein to FLAG-tagged glucokinase (GCK); Myc marks an untargeted standard; higher = target protein stabilised (more abundant)
# Details: target protein: 3xFLAG-MCP-GCK-ALFA reporter; HEK293 landing pad (RPLP)
# Summary of the method: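 An ALFA-nanobody-fused binder library was recombined into HEK293 landing-pad cells and induced with 2 μg mL^−1 doxycycline. Cells were transfected with a plasmid expressing a FLAG-tagged target and a Myc-tagged standard. After 48 h, lysates underwent anti-FLAG and anti-Myc immunoprecipitation, and circular RNA barcodes were reverse transcribed, amplified and sequenced. Target abundance is the per-binder median log2 ratio of FLAG to Myc barcode read proportions. Barcodes needed ≥10^−7 proportion in both replicates, binders ≥3 barcodes per replicate, and a 10^−6 pseudocount was added; the two replicates were pooled.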
row,Binder,median log2 fold change
1,B1,-0.0823
2,B2,0.0494
3,B3,-0.012
4,B4,0.226
5,B5,0.245
6,B6,0.177
7,B7,0.159
8,B8,0.0718
9,B9,0.243
10,B10,0.106
11,B11,0.085
12,B12,0.163
13,B13,0.281
14,B14,0.19
15,B15,-0.0291
16,B16,-0.105
17,B17,0.151
18,B18,-0.0185
19,B19,-0.852
